Assay results taken from publication PMC4336329 (PLoS ONE, 2015).
Hit rate of the full screen: of about 310,000 compounds, about 14,000 (4.5%) showed an effect of 50% or more. Effects have a minus sign here. This is one part of the list.

These compounds were tested against human ether-à-go-go-related gene (hERG) potassium channel (human, UniProt Q12809) (assay: primary screen, population patch clamp on CHO cells stably expressing hERG).
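Also: peak tail current of the secondary pulse compared with the same well before compound.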

Sequence of human ether-à-go-go-related gene (hERG) potassium channel (Q12809 whole entry, looked up): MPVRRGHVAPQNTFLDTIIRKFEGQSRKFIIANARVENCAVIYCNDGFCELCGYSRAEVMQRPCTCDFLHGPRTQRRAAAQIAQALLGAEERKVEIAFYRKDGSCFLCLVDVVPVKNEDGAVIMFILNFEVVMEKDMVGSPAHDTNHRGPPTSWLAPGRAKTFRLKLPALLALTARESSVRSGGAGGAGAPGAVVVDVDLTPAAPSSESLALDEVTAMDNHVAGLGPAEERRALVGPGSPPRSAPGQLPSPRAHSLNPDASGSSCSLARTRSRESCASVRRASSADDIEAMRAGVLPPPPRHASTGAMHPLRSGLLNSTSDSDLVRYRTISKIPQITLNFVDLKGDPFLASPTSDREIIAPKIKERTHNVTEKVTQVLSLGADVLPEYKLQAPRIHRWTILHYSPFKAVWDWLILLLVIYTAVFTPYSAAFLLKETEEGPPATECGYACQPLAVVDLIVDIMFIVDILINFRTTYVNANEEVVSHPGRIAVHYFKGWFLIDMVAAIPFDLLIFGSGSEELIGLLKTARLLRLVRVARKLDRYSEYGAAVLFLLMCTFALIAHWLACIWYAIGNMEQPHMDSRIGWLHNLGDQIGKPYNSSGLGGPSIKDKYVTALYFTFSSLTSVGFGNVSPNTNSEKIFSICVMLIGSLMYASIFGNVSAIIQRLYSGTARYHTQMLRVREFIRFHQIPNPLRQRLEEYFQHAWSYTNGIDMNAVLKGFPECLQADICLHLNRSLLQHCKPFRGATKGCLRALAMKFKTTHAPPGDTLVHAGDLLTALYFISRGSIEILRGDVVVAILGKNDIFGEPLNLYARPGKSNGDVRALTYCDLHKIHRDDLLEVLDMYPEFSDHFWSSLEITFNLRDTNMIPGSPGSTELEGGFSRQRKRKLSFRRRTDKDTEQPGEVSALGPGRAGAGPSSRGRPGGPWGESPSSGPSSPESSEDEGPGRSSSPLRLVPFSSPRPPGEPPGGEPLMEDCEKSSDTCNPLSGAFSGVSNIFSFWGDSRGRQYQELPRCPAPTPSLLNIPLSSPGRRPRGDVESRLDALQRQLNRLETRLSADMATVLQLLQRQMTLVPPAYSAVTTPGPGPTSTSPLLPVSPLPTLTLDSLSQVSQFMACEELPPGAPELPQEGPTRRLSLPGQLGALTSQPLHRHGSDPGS

SMILES	hERG current change (%, negative = inhibition) at 10uM [%]
COC(=O)c1ccc(C2CC(=O)NC3=C2C(=O)CCC3)cc1 (centres unmarked)	5.97
O=C(CCn1c(=S)[nH]c2ccccc2c1=O)NCCCN1CCCC1=O	-22.9
COc1ccccc1N1CCN(C2CCCN(C(=O)c3snnc3C)C2)CC1 (centres unmarked)	-1.76
CN1CCC(=O)N([C@H](CSc2ccccc2)Cc2ccccc2)CC1	-45.8
C/C=C1\COC(C(=O)NCCN2CCCC2)(C(F)(F)F)C=C1C=C1CCCCC1 (centres unmarked)	-34.5
CCN(CCNC(=O)c1cccc(N2CCCC2=O)c1)c1ccccc1	-21.6
COC(=O)C1=CO[C@@H](C)[C@H]2CN3CC[C@]4(C(=O)Nc5ccccc54)[C@@H]3C[C@H]12	15.5
COc1ccccc1C(=O)Nc1ccncc1	2.06
Cc1cccc(-c2nc3cc([N+](=O)[O-])ccc3o2)c1	11.9
CN(C)S(=O)(=O)c1ccc(NC(=O)COC(=O)Cn2[nH]c(=O)c3ccccc3c2=O)cc1	18
CC1CCC(NC(=O)c2cc(S(=O)(=O)N3CCCCC3)ccc2N2CCOCC2)CC1 (centres unmarked)	-36.9
O=C1NC(=Nc2ccc(O)cc2)S/C1=C\C=C\c1ccco1	6.5
CC(C)NCC(O)Cn1c2c(c3ccccc31)CCc1c-2cnn1-c1ccccc1 (centres unmarked)	-9.13
O=C(c1ccco1)N(c1ccccn1)c1ccccn1	0.647
COc1cc(CN2CCC(n3nccc3NC(=O)CCCc3ccccc3)CC2)ccc1F	-66.5
O=C1CC(c2cccc(Oc3ccccc3)c2)NC(=O)N1 (centres unmarked)	5.15
CCOc1cc(C2NC(=O)NC(C)=C2C(C)=O)cc(Cl)c1OCC(=O)O (centres unmarked)	5.35
Cc1nn(S(=O)(=O)c2ccc(F)cc2)c(C)c1S(=O)(=O)N1CCOCC1	22.6
CC1CN(S(=O)(=O)c2cccc(C(=O)Nc3ccccc3N3CCCCC3)c2)CC(C)O1 (centres unmarked)	5.06
Cc1ccc(C)c(OC(=O)CN2C(=O)c3ccccc3C2=O)c1	16
Fc1ccc(-c2csc(N3CCC(c4ccccc4)C3)n2)cc1 (centres unmarked)	9.17
N#CN(Cc1ccccc1)Cc1ccccc1	-29.1
N#CCC(=O)Nc1ccc(C(=O)NCCc2c[nH]c3ccccc23)cc1	16.5

SMILES	hERG current change (%, negative = inhibition) at 10uM [%]
CC(=O)c1ccc(NC(=S)NCc2ccc(Cl)cc2Cl)cc1	11.8
COc1ccc2cc(/C(C)=N/NC(=O)c3cc(-c4cccnc4)nc4ccccc34)ccc2c1	11.8
O=C(CSc1nc2c(c(C(F)(F)F)n1)CCc1ccccc1-2)NCc1ccc(F)cc1	14.2
Cc1ccc2c(c1)sc1nc(=O)n(-c3cccc(Cl)c3)c(=O)n12	3.86
COCc1c(C(=O)N/N=C(/C)c2ccccc2)nnn1-c1nonc1N	23.8
S=c1[nH]nc(-c2ccco2)n1Cc1ccccc1	7.19
CCCCC(CCC(=O)O)(C(=O)OCC)c1csc(N)n1 (centres unmarked)	15.9
Cc1ccc2nc(NCCc3ccc(Cl)cc3)c3nncn3c2c1	8.75
CC(C)c1nc2ccc(Br)cn2c1NC1CCCC1	-11.3
CCCOc1ccc(S(=O)(=O)NNC(=O)c2cc3ccccc3o2)cc1	8.21
CN(C)C(CNc1ncnc2sccc12)c1cccs1 (centres unmarked)	-2.15
O=C(CN1C(=O)NC2(CCCCCC2)C1=O)c1ccc(F)cc1	-10.7
CCOc1cc(C)cc2oc(=O)cc(-c3ccccc3)c12	1.22
O=c1[nH][nH]cc1C=NCc1cccnc1	12.7
COc1ccccc1NC(=O)CN1C(=O)CSC(C)C1=O (centres unmarked)	35.9
CCc1ccc(C(=O)N/N=C(\C)c2ccncc2)s1	-11.1
O=C(COc1ccc(/C=N/NS(=O)(=O)c2ccccc2)cc1)Nc1ccc(F)cc1	-37.6
Cc1ccc(S(=O)(=O)N2CC(=O)NC(=O)C2)cc1	6.07
CCNS(=O)(=O)c1ccc(CCC(=O)NCc2ccncc2)cc1	2.58
O=C(NC1CCCCC1)c1noc2c1CCCCC2	-12.2
c1ccc(CCc2nn3c(-c4ccncc4)nnc3s2)cc1	-53.9
CN(C)S(=O)(=O)c1ccc(C(=O)Nc2ccc3ncccc3c2)cc1	21.8
CCNC(=O)NC(=O)CSc1ccc(S(=O)(=O)N(C)C2CCCCC2)cn1	-16.4

SMILES	hERG current change (%, negative = inhibition) at 10uM [%]
O=c1[nH]cc(COCC(F)(F)C(F)(F)C(F)(F)F)c(=O)[nH]1	16.7
CCC(=O)N1CCN(c2ccc(Cl)cc2NC(=O)c2ccc3c(c2)OCCO3)CC1	-37.2
CN(Cc1ccccc1Cl)C(=O)c1cc2ccccc2o1	-2.37
CCOC(=O)/C=C1\SCC(=O)N1CC(=O)Nc1ccc2c(c1)CCC2	3.3
O=c1[nH]c2ccc(Cl)cc2c(-c2ccccc2)c1N1CCOCC1	2.46
CN(c1ccccc1)S(=O)(=O)c1cccc(C(=O)NCc2ccccc2CN2CCCC2)c1	-74.6
COc1ccccc1C(CNC(=O)c1ccc(NS(=O)(=O)c2ccc3c(c2)OCCO3)cc1)N(C)C (centres unmarked)	-25.7
C/C=C(\C)c1nnc(NC(=O)c2ccco2)s1	1.95
Cc1nc(SCC(=O)Nc2c(C)n(C)n(-c3ccccc3)c2=O)[nH]c(=O)c1Cc1ccccc1	6.03
Cn1cccc1/C=N/NC(=O)Cc1ccccc1	18.5
Cc1ccc(C(=O)C2=C(O)C(=O)N(Cc3ccco3)C2c2cccc(Cl)c2)o1 (centres unmarked)	0.92
O=C(COC(=O)/C=C/c1ccc(OC(F)F)cc1)NC1CCCC1	0.985
Nc1cc(=O)[nH]c(SCC(=O)NC2CCCc3ccccc32)n1 (centres unmarked)	0.0692
CC(O)CNCCNCc1c(OCc2ccccc2)ccc2ccccc12.Cl (centres unmarked)	-34.6
CCOC(=O)NC1(C(F)(F)F)N=C(c2ccccc2)NC1=O (centres unmarked)	4.77
O=C(COc1ccc(F)cc1)Nc1ccc(-n2cnnn2)cc1	-49.5
O=C(COc1ccccc1)Nc1ccc(S(=O)(=O)N2CCCC2)cc1	-11.8
COc1ccccc1CNC(=O)c1[nH]c(C)c(C(C)=O)c1C	10.2
COc1ccccc1CNC(=O)CCNS(=O)(=O)c1ccc2c(c1)CC(C)N2C(C)=O (centres unmarked)	17.5
COc1ccc(-c2ccc(-c3nc4ccc(C)cn4c3NC3CCCCC3)cc2OC)cc1.O=C(O)C(F)(F)F	4.84
O=C1C=C(O)CC(c2ccc(Cl)c(Cl)c2)C1 (centres unmarked)	-40.3
N/C(=N\OC(=O)CCCN1C(=O)c2ccccc2C1=O)c1ccccn1	5.36
CC(=O)N1CCc2cc(S(=O)(=O)CCC(=O)N3CCC(C)CC3)ccc21	15.5

SMILES	hERG current change (%, negative = inhibition) at 10uM [%]
CCCc1nnc(SCC(=O)O)n1CC	-2.32
CN(C)CCCN(C(=O)c1ccc(S(=O)(=O)N2CCOCC2)cc1)c1nc2cc3c(cc2s1)OCO3.Cl	-61.4
Cc1cc(C(=O)NNC(=O)c2cccc(C(F)(F)F)c2)no1	13.6
Cn1nnnc1SCc1nc2scc(-c3ccccc3)c2c(=O)[nH]1	-3.59
CC1CC(=O)C2=C(C1)Nc1nc3ccccc3n1C2c1cccnc1 (centres unmarked)	4.17
CC(Oc1cc2oc(=O)c3c(c2cc1Cl)CCCC3)C(=O)NCC1CCC(C(=O)O)CC1 (centres unmarked)	12.6
CN(C)c1ccc(/C=C(\NC(=O)c2ccccc2)C(=O)NCCCn2ccnc2)cc1	-9.78
COc1ccccc1C(=O)Nc1ccccc1SC	-20.3
Cc1ccc(OC(=O)c2sc(Cl)nc2C)cc1C	-13
CCOC(=O)C1=C(COC(=O)/C=C/c2ccc(OCC)c(OC)c2)NC(=O)NC1C (centres unmarked)	-20.6
N#Cc1cn(CC(=O)NCCc2c[nH]c3ccccc23)c2ccccc12	10.6
Cc1ccc(-c2nc(CN(C)C(C3CC3)C3CC3)c(C)o2)cc1	-56.6
O=C(Nc1cccc(C(F)(F)F)c1)C1(c2ccccc2)CC1	-9.24
Cc1ccccc1CC(=O)NCc1cccnc1	10.8
CCOC(=O)/C(=N\Nc1ccccc1Cl)N1CC(C)OC(C)C1 (centres unmarked)	13.5
CN(C)c1ccc(NC(=O)CCN2CCN(c3ccccn3)CC2)cc1	-5.55
Cc1ccc(NS(=O)(=O)c2ccc(-n3cccn3)cc2)c(C)c1	22.8
CC(=O)Nc1ccc(NC(=O)C2CCN(S(=O)(=O)c3ccc4c(c3)OCCO4)CC2)cc1	11.6
O=C(CSc1nc2[nH]ncc2c(=O)[nH]1)Nc1ccc(Cl)cc1	4.56
O=C(Nc1c(F)cc(F)cc1Br)c1cc(-c2ccccc2)on1	18
